# Measurements published in publication PMC4336329 (PLoS ONE, 2015).
# Hit rate of the full screen: of about 310,000 compounds, about 2,200 (0.71%) showed an effect of 50% or more. Effects have a minus sign here. The list shows a part of the results.
# Target: human ether-à-go-go-related gene (hERG) potassium channel (human, UniProt Q12809)
# Assay: primary screen, population patch clamp on CHO cells stably expressing hERG
# Sequence of human ether-à-go-go-related gene (hERG) potassium channel (Q12809 whole entry, looked up): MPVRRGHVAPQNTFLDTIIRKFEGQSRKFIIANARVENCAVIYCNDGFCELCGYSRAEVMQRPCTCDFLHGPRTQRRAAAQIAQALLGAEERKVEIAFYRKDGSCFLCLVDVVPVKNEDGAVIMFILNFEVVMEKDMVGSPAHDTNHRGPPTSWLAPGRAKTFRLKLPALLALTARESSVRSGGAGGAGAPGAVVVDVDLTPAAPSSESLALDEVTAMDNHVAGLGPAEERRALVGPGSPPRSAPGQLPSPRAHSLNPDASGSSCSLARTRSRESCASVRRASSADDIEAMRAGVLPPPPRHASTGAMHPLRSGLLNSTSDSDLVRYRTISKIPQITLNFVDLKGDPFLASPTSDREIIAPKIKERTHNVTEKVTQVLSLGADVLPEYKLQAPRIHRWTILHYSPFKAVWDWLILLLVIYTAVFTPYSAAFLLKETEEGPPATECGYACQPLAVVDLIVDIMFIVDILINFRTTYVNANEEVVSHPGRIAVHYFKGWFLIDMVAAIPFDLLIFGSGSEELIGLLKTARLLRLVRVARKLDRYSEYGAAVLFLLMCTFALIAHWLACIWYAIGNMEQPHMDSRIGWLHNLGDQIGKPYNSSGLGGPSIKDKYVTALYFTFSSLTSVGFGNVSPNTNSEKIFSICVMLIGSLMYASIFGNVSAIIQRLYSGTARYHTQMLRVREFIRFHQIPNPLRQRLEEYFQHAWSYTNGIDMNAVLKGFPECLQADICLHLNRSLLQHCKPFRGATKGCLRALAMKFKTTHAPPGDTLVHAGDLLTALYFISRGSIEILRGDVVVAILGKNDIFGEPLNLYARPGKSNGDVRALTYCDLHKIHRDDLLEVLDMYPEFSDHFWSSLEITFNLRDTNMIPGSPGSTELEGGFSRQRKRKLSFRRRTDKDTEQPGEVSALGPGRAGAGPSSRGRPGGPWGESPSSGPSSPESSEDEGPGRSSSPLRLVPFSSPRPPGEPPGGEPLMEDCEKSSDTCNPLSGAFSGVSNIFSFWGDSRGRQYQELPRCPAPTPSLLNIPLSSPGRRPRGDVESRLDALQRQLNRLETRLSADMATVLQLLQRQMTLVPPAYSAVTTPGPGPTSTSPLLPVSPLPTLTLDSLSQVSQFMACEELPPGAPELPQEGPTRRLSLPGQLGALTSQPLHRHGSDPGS
row,SMILES,"hERG current change (%, negative = inhibition) at 1uM"
1,O=C(NCC(c1cccs1)N1CCOCC1)c1cccc([N+](=O)[O-])c1 (centres unmarked),0.76%
2,COc1ccc(CCC(=O)NNC(=O)Cn2nc(C)cc2C)cc1,10.8%
3,COc1nc(C)nc(Cl)c1NC1=NCCN1.Cl,13.8%
4,C[C@@H](C(=O)Nc1nc2ccccc2s1)N1C(=O)C2CC=CCC2C1=O (some centres unmarked),10.5%
5,CCc1ccccc1NC(=O)CCc1nc(-c2cccs2)no1,9.25%
6,CC(=O)Nc1ccc(NC(=O)C2CC(=O)N(C(C)C)C2)cc1 (centres unmarked),13%
7,COc1cc2c(cc1NC(=O)COC(=O)c1ccc(C(C)(C)C)cc1)oc1ccccc12,6.3%
8,CC1CC(C)(C)CC2(C1)NC(=O)N(CC(=O)N(C)Cc1nc3ccccc3c(=O)[nH]1)C2=O (centres unmarked),2.77%
9,Cc1c(C(=O)O)sc2nc(/C=C/c3cccc(O)c3)[nH]c(=O)c12,13.1%
10,Cc1ccccc1-n1ncc2c1CC(C)(C)CC2NC(=O)c1snnc1C (centres unmarked),11.9%
11,COc1ccc(S(=O)(=O)Cc2ccc(C(=O)N3CCN(c4ncccn4)CC3)o2)cc1,-5.55%
12,Cc1ccc(CNC(=O)Cn2cccc2)cc1,14.9%
13,O=C(Nc1cccnc1)c1ccc(C(=O)Nc2cccnc2)cc1,11.4%
14,COc1ccc(CNC(=O)c2cccc(S(=O)(=O)N3CCN(C)CC3)c2)cc1,27%
15,O=C(CSc1cn[nH]n1)Nc1ccccc1C(F)(F)F,17.3%
16,CCOC(=O)N1CCN(C(=O)Cn2nc(C)n3nc(-c4ccc(CC)cc4)cc3c2=O)CC1,15.6%
17,COc1cccc(NC(=O)COC(=O)CCC2CCCC2)c1,4.62%
18,COc1cccc(NC(=O)C2CC(=O)N(Cc3ccc(C)cc3)C2)c1 (centres unmarked),3.03%
19,Cc1nn(CC(=O)Nc2ccc(C#N)cc2)c(C)c1[N+](=O)[O-],-1.08%
20,Cc1ccc(NC(=O)CN(C)Cc2nc3c(Br)cc(Br)cc3c(=O)[nH]2)cc1,12.7%
21,Cc1ccc(C(=O)Nc2ccc(Cl)cn2)cc1S(=O)(=O)N1CCOCC1,-17.1%
22,COc1ccc(-n2cc(CNCCCN3CCCC3=O)c(-c3ccccc3Cl)n2)cc1,-1.14%

row,SMILES,"hERG current change (%, negative = inhibition) at 1uM"
1,FC(F)(F)c1cc(-c2ccccc2)nc2ncnn12,10.2%
2,CC(=O)CC(=O)Nc1cccc2c1CCCC2,8.29%
3,Nc1c(-c2cccc(Cl)c2)cnn1-c1ccccc1,-0.925%
4,COc1ccccc1N1CCN(C(=O)NC23CC4CC(CC(C4)C2)C3)CC1,14.4%
5,Cc1ccc(C)c(NC(=O)CN(C)C(=O)COc2cccc3c2OC(C)(C)C3)c1,1.57%
6,CCOc1ccc(OCCC(=O)NNC(=O)c2cc(C)oc2C)cc1,9.05%
7,CCOc1ccc(OCCN2CCCCC2)cc1.O=C(O)C(=O)O,-4.9%
8,CCOc1cc(CC(=O)N[C@@H](CC(C)C)c2ccccc2N2CCCCC2)ccc1C(=O)O,17.3%
9,COc1ccc(/C(C)=N/Nc2cccc(C(=O)O)c2)cc1OC,3.83%
10,CC(C)CNC(=O)c1ccccc1N(Cc1ccccc1)S(C)(=O)=O,10.8%
11,COc1ccc(S(=O)(=O)N2CCCCCC2)cc1C(=O)N(C)CC(=O)Nc1cc(C)ccc1C,7.39%
12,CC(=O)Nc1nnc(COc2ccccc2)s1,5.49%
13,COC(=O)C1=C(C)N(CCc2cc(OC)c(OC)c(OC)c2)C(=O)N[C@H]1c1cccs1,17.8%
14,O=C(COC(=O)c1ccc(Cl)c(S(=O)(=O)N2CCN(c3ccc(F)cc3)CC2)c1)Nc1cccc(Cl)c1,14%
15,Clc1ccccc1-c1nnc2sc(C3COc4ccccc4O3)nn12 (centres unmarked),-4.51%
16,O=C(COc1ccc2ccc(=O)oc2c1)Nc1ccc(N2CCCCC2)cc1,5.6%
17,Cc1ccccc1Nc1nc(-c2ccccc2)c(C(=O)Nc2cccnc2)s1,15.8%
18,O=C(Nc1ncc(Cc2cccc(C(F)(F)F)c2)s1)c1ccc(-c2cccc([N+](=O)[O-])c2)o1,4.7%
19,CCc1cc(=O)[nH]c(SC/C=C/c2ccccc2)n1,3.83%
20,O=C(CCS(=O)(=O)c1ccc(Br)cc1)NC1CCCCCC1,12.7%
21,Cc1cccc(C(=O)N2CCN(c3ccc(C(F)(F)F)cn3)CC2)c1C,-0.977%
22,COc1ccc(NC(=O)C2CCN(S(=O)(=O)c3ccc(N4CCCC4=O)cc3)CC2)c(OC)c1,17.6%
